# Experimental data: the supplement of paper PMC8728848
# The list shows a part of the results.
# B1: Epa1-NP (Candida glabrata), Q6VBJ0 (protein)
# chain: MILNPALFLNKCVCIYTTLILLLLTNGGYATSSNDISLASKDPTTFPLGCSPDITTPKKGLSMELYSYDFRKKGSYPCWDAAYLDPNYPRTGYKSHRLLAKVDGVTGNINFYYHATKGCTPQLGHLPASYNYPKPLTMTNFTMLLYGYFRPKVTGFHTFTISADDLLFVNFGAGNAFDCCRRDSSADHFGNYQAYAIWGSKTAKDELTVHLDAGVYYPIRLFYNNREYDGALSFTFKTESNENTVSDFSEYFFSLDDTEEGCPGLISYDSSCASVKTSKIIGIDYHTETPNENLVPITKTIYHLGIPCTGTTTTPLCGSGFYDPLANKCVTINTSSTSSVTKTTSHTTSKEVSFHSSISSQKTLIPKSIPSPYGPIKSQSIPTEMETSSEISSSEYAFSDVISTPSHSPYTKKHSSLNSSSYTSTVIHSLTSYSISQGIFSTSLSEQNITSKSSTDKFSTATSMSNNITQSSIIISQFSTNNENYTTTSMHTSSDKISTETLNNSISTTTSILFSNSSTILKNNTTIISSDKDTHYHPVNPTIVCSTNKTEIICASITQPSISNSNNHWSSSVLKFNSTTVRSTLPSSAGSNETSINVPFSSSTESNTSTSSTSTSNSKMVRSTLPSSAGSNETSISVPFSSSTESNTSTSSTSTSNSKMVRSTLPSSAGSNETSINVPFSSSTESNTSTSSTSTSNSKTVRSTPFSSAGIIMTSLSQRNNKSASSYASSNSKCYNTADSCRKVHSTPSYLLTSSYTSEGVDYDCSLVSTKLKINDTNCVNNKHTTKSCLKTSVTTTIPTLEIKTARKSSSNTIGLHSYPTSSPNKSISSAPIIGYISSFKTIKTASPSYQTSDLTTITTITSLNNPGSTAVENTHESNDKSRKTSSNDISSKHSVIKETKDAVESSNKSHQTNTLKCSSIIIASSSHNSYESLGGTTLTLTLSKVYSPQNNDTLPFLEISEVNPSRTVLPESSKMMQYLTSTEERNKTARNTIATNIVSISTFHFEGEGNAIRMGYTQLLLMLIGIIVMNIGT
# What was measured:
# Experiment in all cases: glycan array binding signal (z-score within array); higher = stronger binding
# Details in all cases: glycan notation: IUPAC condensed, linker removed
# [1] = target: GlcNAc(a1-4)Gal(b1-4)GalNAc
# Procedure, shortened: (§1)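 Glycan array data came from 3228 arrays in the Consortium for Functional Glycomics database, and only arrays with an available protein sequence were kept. Glycan names were put into IUPAC-condensed notation, and columns mapping to the same glycan were averaged. The binding signal is a within-array Z-score, averaged across arrays of one protein sequence run at different concentrations or buffers and across linkers. A negative Z-score can be read as non-binding.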
# [2] = target: GlcNAc(a1-4)Gal(b1-4)GlcNAc
# Procedure, shortened: as §1
# [3] = target: GlcNAc(a1-4)Gal(b1-4)GlcNAc(b1-3)Gal(b1-4)Glc
# Procedure, shortened: as §1
# [4] = target: GlcNAc(a1-4)Gal(b1-4)GlcNAc(b1-3)Gal(b1-4)GlcNAc
# Procedure, shortened: as §1
# [5] = target: GlcNAc(a1-4)Gal(b1-4)GlcNAc(b1-3)Gal(b1-4)GlcNAc(b1-3)Gal(b1-4)GlcNAc
# Procedure, shortened: as §1
# [6] = target: GlcNAc(a1-4)Gal(b1-4)GlcNAc(b1-3)Gal(b1-4)[Fuc(a1-3)]GlcNAc(b1-3)Gal(b1-4)[Fuc(a1-3)]GlcNAc
# Procedure, shortened: as §1
# [7] = target: GlcNAc(a1-6)Gal(b1-4)GlcNAc
# Procedure, shortened: as §1
# [8] = target: GlcNAc(b1-2)Gal(b1-3)GalNAc
# Procedure, shortened: as §1
# [9] = target: GlcNAc(b1-2)Gal(b1-3)GlcNAc
# Procedure, shortened: as §1
# [10] = target: GlcNAc(b1-2)Man(a1-3)[GlcNAc(b1-2)Man(a1-6)]Man(b1-4)GlcNAc(b1-4)GlcNAc
# Procedure, shortened: as §1
# [11] = target: GlcNAc(b1-2)Man(a1-3)[GlcNAc(b1-2)Man(a1-6)]Man(b1-4)GlcNAc(b1-4)[Fuc(a1-6)]GlcNAc
# Procedure, shortened: as §1
# [12] = target: GlcNAc(b1-2)Man(a1-3)[GlcNAc(b1-4)][GlcNAc(b1-2)Man(a1-6)]Man(b1-4)GlcNAc(b1-4)GlcNAc
# Procedure, shortened: as §1
# [13] = target: GlcNAc(b1-2)Man(a1-3)[GlcNAc(b1-4)][GlcNAc(b1-2)Man(a1-6)]Man(b1-4)GlcNAc(b1-4)[Fuc(a1-6)]GlcNAc
# Procedure, shortened: as §1
# [14] = target: GlcNAc(b1-2)[GlcNAc(b1-4)]Man(a1-3)[GlcNAc(b1-2)Man(a1-6)]Man(b1-4)GlcNAc(b1-4)GlcNAc
# Procedure, shortened: as §1
# [15] = target: GlcNAc(b1-2)[GlcNAc(b1-4)]Man(a1-3)[GlcNAc(b1-4)][GlcNAc(b1-2)Man(a1-6)]Man(b1-4)GlcNAc(b1-4)GlcNAc
# Procedure, shortened: as §1
# [16] = target: GlcNAc(b1-2)[GlcNAc(b1-4)]Man(a1-3)[GlcNAc(b1-4)][GlcNAc(b1-2)[GlcNAc(b1-6)]Man(a1-6)]Man(b1-4)GlcNAc(b1-4)GlcNAc
# Procedure, shortened: as §1
# [17] = target: GlcNAc(b1-2)[GlcNAc(b1-4)]Man(a1-3)[GlcNAc(b1-4)][GlcNAc(b1-2)[GlcNAc(b1-6)]Man(a1-6)]Man(b1-4)GlcNAc(b1-4)[Fuc(a1-6)]GlcNAc
# Procedure, shortened: as §1
# [18] = target: GlcNAc(b1-2)[GlcNAc(b1-6)]Man(a1-6)[GlcNAc(b1-2)Man(a1-3)]Man(b1-4)GlcNAc(b1-4)GlcNAc
# Procedure, shortened: as §1
# [19] = target: GlcNAc(b1-2)[GlcNAc(b1-6)]Man(a1-6)[GlcNAc(b1-2)Man(a1-3)]Man(b1-4)GlcNAc(b1-4)[Fuc(a1-6)]GlcNAc
# Procedure, shortened: as §1
# [20] = target: GlcNAc(b1-2)[GlcNAc(b1-6)]Man(a1-6)[GlcNAc(b1-2)Man(a1-3)][GlcNAc(b1-4)]Man(b1-4)GlcNAc(b1-4)GlcNAc
# Procedure, shortened: as §1
# [21] = target: GlcNAc(b1-2)[GlcNAc(b1-6)]Man(a1-6)[GlcNAc(b1-4)][GlcNAc(b1-2)Man(a1-3)]Man(b1-4)GlcNAc(b1-4)GlcNAc
# Procedure, shortened: as §1
# GlcNAc(b1-3)Fuc = target: GlcNAc(b1-3)Fuc
# Procedure, shortened: as §1
# GlcNAc(b1-3)Gal = target: GlcNAc(b1-3)Gal
# Procedure, shortened: as §1
# [22] = target: GlcNAc(b1-3)Gal(b1-3)GalNAc
# Procedure, shortened: as §1
# GlcNAc(b1-3)Gal(b1-4)Glc = target: GlcNAc(b1-3)Gal(b1-4)Glc
# Procedure, shortened: as §1
# [23] = target: GlcNAc(b1-3)Gal(b1-4)GlcNAc
# Procedure, shortened: as §1
# [24] = target: GlcNAc(b1-3)Gal(b1-4)GlcNAc(b1-2)Man(a1-3)[GlcNAc(b1-3)Gal(b1-4)GlcNAc(b1-2)Man(a1-6)]Man(b1-4)GlcNAc(b1-4)GlcNAc
# Procedure, shortened: as §1
# [25] = target: GlcNAc(b1-3)Gal(b1-4)GlcNAc(b1-2)Man(a1-3)[GlcNAc(b1-3)Gal(b1-4)GlcNAc(b1-2)Man(a1-6)]Man(b1-4)GlcNAc(b1-4)[Fuc(a1-6)]GlcNAc
# Procedure, shortened: as §1
# [26] = target: GlcNAc(b1-3)Gal(b1-4)GlcNAc(b1-2)[GlcNAc(b1-3)Gal(b1-4)GlcNAc(b1-6)]Man(a1-6)[GlcNAc(b1-3)Gal(b1-4)GlcNAc(b1-2)Man(a1-3)]Man(b1-4)GlcNAc(b1-4)GlcNAc
# Procedure, shortened: as §1
# [27] = target: GlcNAc(b1-3)Gal(b1-4)GlcNAc(b1-3)Gal(b1-4)GlcNAc
# Procedure, shortened: as §1
binder,measurement,setting,value
B1,glycan array binding signal (z-score),[1],-0.302
same,glycan array binding signal (z-score),[2],-0.244
same,glycan array binding signal (z-score),[3],-0.255
same,glycan array binding signal (z-score),[4],-0.217
same,glycan array binding signal (z-score),[5],-0.291
same,glycan array binding signal (z-score),[6],-0.177
same,glycan array binding signal (z-score),[7],1.83
same,glycan array binding signal (z-score),[8],-0.279
same,glycan array binding signal (z-score),[9],-0.549
same,glycan array binding signal (z-score),[10],-0.375
same,glycan array binding signal (z-score),[11],-0.278
same,glycan array binding signal (z-score),[12],-0.294
same,glycan array binding signal (z-score),[13],-0.289
same,glycan array binding signal (z-score),[14],-0.232
same,glycan array binding signal (z-score),[15],-0.281
same,glycan array binding signal (z-score),[16],-0.303
same,glycan array binding signal (z-score),[17],-0.285
same,glycan array binding signal (z-score),[18],-0.303
same,glycan array binding signal (z-score),[19],-0.277
same,glycan array binding signal (z-score),[20],-0.3
same,glycan array binding signal (z-score),[21],-0.289
same,glycan array binding signal (z-score),GlcNAc(b1-3)Fuc,-0.284
same,glycan array binding signal (z-score),GlcNAc(b1-3)Gal,-0.331
same,glycan array binding signal (z-score),[22],-0.284
same,glycan array binding signal (z-score),GlcNAc(b1-3)Gal(b1-4)Glc,-0.315
same,glycan array binding signal (z-score),[23],-0.296
same,glycan array binding signal (z-score),[24],-0.287
same,glycan array binding signal (z-score),[25],-0.277
same,glycan array binding signal (z-score),[26],-0.245
same,glycan array binding signal (z-score),[27],-0.165
